Laboratory results reported in US11312685B2, “Targeting nanoparticles” (Texas Children's Hosptial, priority 2017, dated 2022).
Read-outs that look alike come from different tables or passages of the source.

Assays:
integrin α4β1 [1] = target: T1, integrin α4β1 (Homo sapiens, UniProt P05556+P13612); test: K562(α4β1) cell adhesion to CS-1; type: cell-based; parameters: expressed in transfected cells; host or cells: K562 cells engineered to over-express integrin α4β1
integrin α4β1 [2] = target: T1, integrin α4β1; test: Competition of Gd567 liposome binding to α4β1-K562 cells by free targeting ligand; parameters: expressed in transfected cells; host or cells: K562 cells engineered to over-express integrin α4β1; details: α4β1 expressing K562 cells; highest doses of competitor
Text: THI567-targeted liposome (150 nm; 1.0%) was used at a concentration of 2×10^−10 pM, and THI565 was used at indicated concentrations. Rhodamine fluorescence was detected by flow cytometry.
Particle size is a critical component for acceptable functionality and pharmacokinetics of the liposome in vivo. In an embodiment, the particle size is between 50 and 400 nm. In an embodiment, the particle size is between 85 and 200 nm. In another embodiment, different liposome sizes were developed (250 nm, 150 nm, and 100 nm). Lissamine rhodamine B was incorporated into the liposomes for fluorescence detection, and Gd was incorporated into liposome for MRI-based imaging. Liposomes were termed “Gd567” (size nm; % targeted ligand). Table 2 also describes liposome binding constants as measured by their binding to α4β1 expressing K562 cells (measured by flow cytometry). Binding constants are expressed as the molar particle concentration. Binding specificity of liposomes was determined by a number of different means. These include competition with free targeting ligand (FIG. 3), where excess THI565 was used to compete binding of Gd567 (150 nm; 1.0%) liposome to integrin α4β1 expressing K562 cells.

integrin α4β1 [3] = target: T1, integrin α4β1; details: Activity (IC50), K562(α4β1), VCAM-1, Mn (high affinity)

Cc1cn(Cc2c(Cl)cccc2OCCO)c(=O)c(NC(=O)N[C@@H](CC(=O)O)c2cccc(OCCO)c2)c1O [THI565]
IC50 (integrin α4β1 [1]; Ca/Mg): 7.94 nM
IC50 (integrin α4β1 [1]; Mn): 0.32 nM
inhibition of Gd567 (150 nm; 1.0%) liposome binding (integrin α4β1 [2]): Complete inhibition
IC50 (integrin α4β1 [3]): 0.467 nM
